± gives the standard deviation of the averaged measurements. The list shows a part of the results.

From the supplement of paper PMC11417369 come the findings set out here.

In this assay the test system is PfAP2-EXP AP2 domain (GST-tagged). The experiment in a line: gcPBM binding intensity (ln(normalized median fluorescence intensity)); higher = stronger DNA binding. An outline of the steps:
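Probes on an Agilent 4 × 180k array were primer-extended, double-stranded and 36 bp long, taken from intergenic genomic regions, with negative controls added. GST-tagged P. falciparum DNA-binding domains from E. coli, about 25 μg on average, were applied to the array for 1 h in 1× PBS containing 1% milk, 0.2 mg/ml BSA, 0.5% salmon testes DNA and 0.03% Triton X-100. Binding intensity, obtained after Alexa488 anti-GST antibody detection and a 488 nm scan, is the highest Masliner-normalised natural-log median intensity across replicate spots of either probe orientation.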
For the sequence “TGTTGATGATATTACACACCCAATGAGAAAAGGAAT [CACACA_site2072]”, the “gcPBM binding intensity (ln)” value came to 8.79 ± 0.41.
As for “TAAAAATGTGGACACACACACATATTTATATTTAAT [CACACA_site6827]”, the figure is 8.38 ± 0.29; as for “TTTTACAAAATAAAAATATAGAATACGGTAAATTAT [GTGCAC_negctrl_site40]”, 8.64 ± 0.54.
Consider “TATTTATTACTATGTAAACACACATGCAATATATGT [CACACA_site8288]”, for which the “gcPBM binding intensity (ln)” value was 8.65 ± 0.38.
On to “TGTAGTCTGGAGAAACGTACACAGTATCTGGTAACA [XGTACX_site4938]”, for which the “gcPBM binding intensity (ln)” value is 8.34 ± 0.36.
Regarding “AAAGGGGATATATGAACACACAAAAAAAAAATATAT [CACACA_site2896]”, the “gcPBM binding intensity (ln)” value is 8.89 ± 0.6.
Consider “TATATTTTATAAAAAAGTACACATGAAAATGTATTT [XGTACX_site5889]”, for which the “gcPBM binding intensity (ln)” value was determined as 8.48 ± 0.27.
The same measure for “ATATTTAAAGAATAAGTGCAAAATGTAATTAATTTT [GTGCAC_site9901]”: 8.55 ± 0.31; for “AAATTTTATTATAGCAGTACAATATAATATTATTAA [XGTACX_site1971]”: 8.41 ± 0.3.
Regarding “TTTTTTCCTTTTAATTGTACACAGATATAATATATT [XGTACX_site2230]”, the “gcPBM binding intensity (ln)” value is 8.69 ± 0.36.
As for “AAATATTTTTTTTCTACACACATACAAATATAGATT [CACACA_site7164]”, the figure is 8.57 ± 0.51.
In the case of “ATGCCCCATATAAACACACAAATAAAAAGAATATAC [CACACA_site7292]”, the “gcPBM binding intensity (ln)” value amounted to 9.21 ± 0.69.
With “AAATTAAAAAGAGCTTGTACAGATGTATACATAATA [XGTACX_site3882]”, the “gcPBM binding intensity (ln)” value was 8.81 ± 0.64.
Regarding “AATTTATATGTTTTGTGTACACAATTTATTAAATTA [XGTACX_site6448]”, the “gcPBM binding intensity (ln)” value is 9.03 ± 0.29.
Turning to “TATATGAAGCTATAGACACACATATAAAAATAGAAT [CACACA_site1313]”, the “gcPBM binding intensity (ln)” value worked out at 8.82 ± 0.46.
As for “TTTATAATTCTTACAACACACAATGTACATTTATAT [CACACA_site1261]”, the figure is 8.66 ± 0.34; as for “ATTATATATAAATATACACACATATATAAAATACAT [CACACA_site5298]”, 8.39 ± 0.28; as for “TACATACAGATATATACACACATATAAAATATAGAT [CACACA_site6319]”, 8.57 ± 0.4.
The same measure for AAGAGAAAAATATGGTTGCACTAAAAATATATATTT: 8.48 ± 0.25.
For the sequence “TTAACAAAATATAGCACACATAAATATATATTTATG [CACACA_site351]”, the “gcPBM binding intensity (ln)” value stood at 8.66 ± 0.33.
As for “TTTTCTAAATATTATAGTACTCTTAATAATATTAAC [XGTACX_site4222]”, the figure is 8.31 ± 0.29; as for TAAAAAATTAATAAAGTGCATAAATATTACAATATT, 8.32 ± 0.18; as for “AATATTAAAATATAAACACACAAAATTCAATTATAT [CACACA_site5971]”, 8.42 ± 0.35.
The same measure for “GACATATTAGAAGGGTGTACATACTTTTAATCATTT [XGTACX_site1698]”: 8.48 ± 0.27; for “ATTCATATATTTATTGCATGCAAAGTAAAATAAATA [TGCATGCA_site307]”: 10.23 ± 0.099; for “TACATATATATATGTATATATATATATATATAAATA [XGTACX_negctrl_site351]”: 8.57 ± 0.18.
With “ATGAATAAATGAACATGTACATATATATATATATTA [XGTACX_site5005]”, the “gcPBM binding intensity (ln)” value is 8.73 ± 0.26.
Consider “AAATGTGCATTATGTTGTACAGTCGAAATTTTTTTT [XGTACX_site3812]”, for which the “gcPBM binding intensity (ln)” value is 8.49.
As for “ACATAACTGATATATACACACAATACAAATATAGAT [CACACA_site7328]”, the figure is 8.82 ± 0.38; as for “ATAAAAGGAATATTTGCATGTGGTAGTACATAACAT [TGCATGCA_site978]”, 9.04 ± 0.028.
As for “TTTTCTAAAATATTCATAATAAATCAAAAAAAAAAA [GTGCAC_negctrl_site320]”, the figure is 8.39 ± 0.45; as for “CATATATCATAAATATGTACGAAATAAAAGAATCAT [XGTACX_site942]”, 8.79 ± 0.45.
With “TAATATTTTTATTATTAGAATTGTATATGTTTAATA [CACACA_negctrl_site1833]”, the “gcPBM binding intensity (ln)” value stood at 7.78 ± 0.26.
The same measure for “TATAAATATGTATATACACACTTTTAATATTCATAA [CACACA_site7856]”: 8.37 ± 0.38; for “TTTTCTTACTATTGTAGTACAATATTATATTCTTTT [XGTACX_site1925]”: 8.78 ± 0.3.
As for “TGCGTATTCTTATTAGGTACACATATTCGTGATAAT [XGTACX_site5681]”, the figure is 8.62 ± 0.35; as for “ATAAAAAAATAAAACACACACATATAGATTATAGAT [CACACA_site7343]”, 8.71 ± 0.55; as for “GATTTATATATATAAAATAATTGAATATTTTCTTTT [CACACA_negctrl_site801]”, 8.11 ± 0.3.
Consider “TAATTTGAAAAATTGTGTACTCATAAAATAAATAAA [XGTACX_site2138]”, for which the “gcPBM binding intensity (ln)” value was found to be 8.36 ± 0.37.
As for “TTTATTTTTCATAATTGTACAAAAATAAATGGAAAC [XGTACX_site5144]”, the figure is 8.94 ± 0.48.
As for “ATAGATGATATACGTAAACACACAAATAAAAAAAAT [CACACA_site9095]”, the figure is 8.9 ± 0.6; as for “TACAAATATAGACACACACACATATATATATATATA [CACACA_site585]”, 10.2 ± 0.37; as for “TATATACCACATTGTTGTACGACACATTTACATTTT [XGTACX_site8370]”, 9.02 ± 0.38.
As for “TTCTTTTAAAGGTATACATGCGCATGGATTTTTCAT [TGCATGCA_site223]”, the figure is 9.29 ± 0.39.
